# Source: publication PMC11172314, “Towards Enhanced Tunability of Aqueous Biphasic Systems: Furthering the Grasp of Fluorinated Ionic Liquids in the Purification of Proteins” (International Journal of Molecular Sciences, 2024)
# Entries with a single value are a further part of the results.
# Molecular target: T1, lysozyme (Lys) (Gallus gallus, UniProt P00698)
# T1 construct: Lyophilized lysozyme from chicken egg white, ≥90% purity; purchased Millipore (Darmstadt, Germany); host or cells: chicken egg white (natural source)
# Assay: DSC thermal stability (Tm, ΔH) of lysozyme in water, component solutions and ABS phases
# Design: species or system chicken
# Settings: 1.0 mg/mL Lys, 25 mM component in water, several transitions listed singly
# Source text: Differential scanning calorimetry (DSC) measurements (Section 3) were used to determine the melting temperature ( Tm ) and enthalpy ( Δ H) of lysozyme, at which both the folded and unfolded states coexist at equilibrium. DSC outputs, thermal transitions at the nanoscale level, allow to analyze alterations on proteins structure and stability, providing sharp perceptions of the factors affecting stability, as well as of the folding and unfolding processes. […] (DSC curve depicted in Figure S16 of Supplementary Materials).
# FIL (BP#8, BP#10, BP#11, and BP#12). […] For the system based on [C4C1Im][CF3SO3]
# The thermal stability of lysozyme was analyzed in water, ABS phase-forming compounds aqueous solutions, and partition ABS phases. […] Partition lysozyme on each phase from the prepared biphasic points as well as recovered protein from the FIL-rich phase were also addressed for a selection of studied systems listed in Table 1. We acquired thermograms using a TA^TM Nano DSC from TA Instruments. All scans were conducted in a 300 μ L capillary cell through a temperature ramp from 20 to 90 °C at a heating rate of 1 °C/min and 3 atm pressure. All samples were degassed for 7 min at 20 °C, with the exception of FIL-containing samples owing to their surfactant properties. […]
# T1 sequence (P00698 19-147): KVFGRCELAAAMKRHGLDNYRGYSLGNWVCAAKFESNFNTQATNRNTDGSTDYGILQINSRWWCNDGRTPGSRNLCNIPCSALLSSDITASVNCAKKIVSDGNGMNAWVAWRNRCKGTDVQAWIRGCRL
structure (smiles),measurement,setting,value
C[N+](C)(C)CCO.O=S(=O)([O-])C(F)(F)C(F)(F)C(F)(F)C(F)(F)F [[N1112(OH) ][C4F9SO3]],Lys Tm,first of three DSC transitions,80.04 °C
same,Lys Tm,third of three DSC transitions,86.40 °C
